Measured values: the supplement of paper PMC11417369
± gives the standard deviation of the averaged measurements. The list shows a part of the results.

The sequences below were run on PfAP2-G AP2 domain (GST-tagged) (assay: gcPBM binding intensity (ln(normalized median fluorescence intensity)); higher = stronger DNA binding).
Method in brief: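 Binding intensity is defined as the maximum Masliner-normalised natural-log median intensity across replicate spots for either probe orientation. It was measured on an Agilent 4 × 180k array of primer-extended double-stranded 36-bp intergenic genomic probes and negative controls, to which GST-tagged P. falciparum DNA-binding domains made in E. coli were applied for 1 h in 1× PBS with 1% milk, 0.2 mg/ml BSA, 0.5% salmon testes DNA and 0.03% Triton X-100. Detection was by Alexa488 anti-GST antibody and scanning at 488 nm.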

| Sequence | gcPBM binding intensity (ln) |
| --- | --- |
| GTTGTTTCTATAAATTGTACTTAAATATAATTATAT [XGTACX_site585] | 11.2 ± 0.72 |
| ATATATTGTATGTGCTCACACATGTTTCGATATTAT [CACACA_site4336] | 10.2 ± 0.15 |
| GTAAATATGTTTATTAGTACACATATGAAAATAAAT [XGTACX_site5820] | 11.3 ± 0.77 |
| ACGCACGAAATAAATACATGCATATTGTAAAAATTA [TGCATGCA_site310] | 9.845 ± 0.092 |
| GGGAATATATTCAATTGTACATTCTTATTTTATCCA [XGTACX_site8480] | 10.7 ± 0.28 |
| TCTTTTTTTTTACATACTTTTTTCCTTTTTTTTTTA [CACACA_negctrl_site1429] | 9.99 ± 0.11 |
| TATATATATATTAGTGGTACAAGATTTTTTTCTTTT [XGTACX_site4619] | 11.2 ± 0.74 |
| TATAAACACCCATATAAACACACATACATACATACA [CACACA_site8791] | 10.6 ± 0.33 |
| TATTTAATGCAAAAACGTACATAAATAACATTCACA [XGTACX_site5356] | 11.3 ± 0.68 |
| ATATTATTTATAAGTTGTACGGTATAATATAATATA [XGTACX_site5371] | 10.8 ± 0.54 |
| AAAAAATATATATTAACACACACACTAATAAAAAAA [CACACA_site8366] | 10.1 ± 0.11 |
| AAAATTTTTTACTTTACACACATTTTGTATATTTTG [CACACA_site1730] | 9.98 ± 0.23 |
| TCTTGTAGATATATTTGTACATATATTTATGGGTAT [XGTACX_site1139] | 10.9 ± 0.47 |
| CTAGACTTTTTACAATGTACATATTTATGTATTATT [XGTACX_site1833] | 11 ± 0.65 |
| TTTTTTCATAAATAATGTACATATATATATATATAT [XGTACX_site3620] | 11 ± 0.56 |
| AAAGGTGTATATAATACACACGTGTGATTAAAATTG [CACACA_site8104] | 10.13 ± 0.064 |
| TTTCAAAAAAATAGCTATATTTATATTAATGCACGA [TGCATGCA_negctrl_site63] | 10 ± 0.3 |
| TATATAACTGTCTTCAGTACACAATAAATAAAAATA [XGTACX_site8856] | 11.3 ± 0.93 |
| TAATAAAAATAAAATTGTACTAATAACATTTCATTA [XGTACX_site3703] | 10.9 ± 0.64 |
| CATATTTGATACAAGTGTACTTTATTTAAAAATTCT [XGTACX_site8408] | 11.4 ± 0.93 |
| AACTTTGAGACATAGTGTACTTACACAATCTTAATA [XGTACX_site3712] | 11.4 ± 0.86 |
| ACATTTTTTTTTTTTTTTCTTTTTCTTTTTCTTTTT [CACACA_negctrl_site1295] | 9.65 ± 0.29 |
| TAATATAATATATGCACACAAATATGTATTTATGTG [CACACA_site5210] | 10.3 ± 0.19 |

| Sequence | gcPBM binding intensity (ln) |
| --- | --- |
| TCGTATCTATTGAGGGTGCCTCTATAATTGATACAA [GTGCAC_site9636] | 10 ± 0.16 |
| AACCTAAGCATTCTTCAAATTATATATGTAAAATGA [CACACA_negctrl_site261] | 9.65 ± 0.11 |
| CTTACACCCATATATACACACATGTATATTTTATAT [CACACA_site4462] | 10.195 ± 0.007 |
| TACTCCTCAATATTATGTACATATAATAGTTATAAA [XGTACX_site8551] | 11.2 ± 0.79 |
| ATATATAAACACTCTTGTACATAATAATGTATATAT [XGTACX_site2451] | 10.8 ± 0.45 |
| GAAAAAATAAAATAAAGTACATAACTATAATAAAAA [XGTACX_site4807] | 11.4 ± 0.9 |
| ATATATATATGTATGTGTCCACAAGGAGATATATAT [XGTACX_site783] | 11.2 ± 0.6 |
| AAAATATTTTAATGTTGTACATTAATATATTATATA [XGTACX_site2513] | 11 ± 0.83 |
| AGTATAAAATAAATGTGTACACAAGAAAATATGTTA [XGTACX_site8381] | 11.8 ± 0.93 |
| AAAATCACAAGACACACACACACAAAAAAAAAAAAA [CACACA_site6791] | 10.1 ± 0.35 |
| ATTATAAAGACATATACACACATACGTACATACATA [CACACA_site5893] | 11.5 ± 0.79 |
| AGTAAATAATAGATCGCATGTAATAACTAGTAGGAA [TGCATGCA_site948] | 10.11 ± 0.035 |
| TACATAAATATATGTGTGCACAATTTCGTATATTTA [GTGCAC_site9859] | 10.4 ± 0.28 |
| TGTACATTCGGAGTAAAAAAAAATTTATACAATTAC [CACACA_negctrl_site1451] | 10.2 ± 0.16 |
| AACAGATAAAAGGGTACACACATATATACCTGTACA [CACACA_site4285] | 11.7 ± 0.99 |
| TGTATTAAATTTTGAACACACAAAATAAAACATATA [CACACA_site1672] | 10.1 ± 0.13 |
| TTATTTATATATTCATGTACATAACATTTCATTCGA [XGTACX_site4388] | 11.1 ± 0.42 |
| TTTTAAGAATAAAATTGTACACATACATGTGTTCGC [XGTACX_site438] | 11.2 ± 0.59 |
| ATATAAATTTTTTAGAGTACTAAAATAAAATAATAT [XGTACX_site2118] | 11.2 ± 0.73 |
| TGTGTATATATATAATGTACATAAAGATTTATATAT [XGTACX_site5835] | 11.1 ± 0.57 |
| TTCTCATTCAAATTAGTGCATTTTTGTTATTACATT | 10.1 ± 0.16 |
| AAACAGAAGACATATACACACATACAAAAAAGTGCA [CACACA_site4699] | 10.2 ± 0.26 |
| TATTTACTTATATGCACACATAAATGTGAATTATGG [CACACA_site3777] | 10.2 ± 0.24 |

| Sequence | gcPBM binding intensity (ln) |
| --- | --- |
| TAAATAATTAAAATATGTACTGAAATGTAATTATTT [XGTACX_site5894] | 11 ± 0.76 |
| TGTATCATAAAAATAACACACGTATTTTTTTTTATT [CACACA_site1050] | 10.08 ± 0.071 |
| TAAAAAATGAAAAAGCGTACATGTTTTCTTATATTA [XGTACX_site1722] | 11.4 ± 0.71 |
| TTTTCTAAAATGAATTGTACTTGATTATTTAAAAAA [XGTACX_site6097] | 11 ± 0.68 |
| ATACTAAAAAGTATCTGTACTTATTTTAAAAATAAA [XGTACX_site4116] | 11.5 ± 1 |
| CAATATATTTGATTTACACACTTACAATGTATATAA [CACACA_site2994] | 10.5 ± 0.35 |
| TTATTTATTTATAATAGTACAATTTAATGATCTTCT [XGTACX_site4831] | 10.8 ± 0.71 |
| TGTTTTATACTAAATGAACACACACCCATATATATA [CACACA_site7912] | 10.3 ± 0.26 |
| AATAATATATATATATATATAATAAAATATAAATAG [CACACA_negctrl_site1515] | 9.615 ± 0.035 |
| CCAACATGCCCACGCACACACAAAAAAAGCATGCAT [CACACA_site4217] | 10.4 ± 0.28 |
| ATAAATACAGATAACACACACATATATATATATATA [CACACA_site5431] | 10.1 ± 0.23 |
| ATATGAAATAATAATAGTACATAAAATAATTTTACT [XGTACX_site6964] | 11.2 ± 0.91 |
| ATAGAAATATATATATGTACATATAGATAAATCTAT [XGTACX_site7833] | 11.1 ± 0.58 |
| AAAAATAACGTAAATTGTACATGTAAAATTTTCTAT [XGTACX_site7158] | 11.1 ± 0.52 |
| TATATATGTATGTATTGTACAATTAAAAATATGTAT [XGTACX_site3990] | 10.8 ± 0.43 |
| ATTATGTATATAAATTAACACACATATGTGGTTAAT [CACACA_site9028] | 9.9 ± 0.14 |
| ACGGGTCAATATATGCGTACTTATTTAAATAATTAA [XGTACX_site1518] | 11.5 ± 1.1 |
| AATAATATAGATTGTACACACAAAATGGGAAAAAAA [CACACA_site1886] | 11.4 ± 0.83 |
| ATAAATGGAAACAAAAGTACTAAAAAAAAAAAATAA [XGTACX_site1510] | 11.1 ± 0.76 |
| AAAAAAAAAAAAGATACACACAAAAATGAATATATA [CACACA_site2099] | 9.93 ± 0.12 |
| ATATATATATATAACTGTACTTATATATACATTTTA [XGTACX_site8605] | 11.2 ± 0.93 |
| ATATATATATATATATGTACATATATATATAATTTT [XGTACX_site4146] | 11.2 ± 0.73 |
| TTTTATCACATTATTGCACACACATAAAGAAAAAAA [CACACA_site8922] | 10.3 ± 0.43 |

| Sequence | gcPBM binding intensity (ln) |
| --- | --- |
| ATCAAGCACCAACACACACACACACCCCCACCCACA [CACACA_site370] | 11 ± 0.48 |
| TAAATAAATAAAAAAACACACATATATATATATATA [CACACA_site4029] | 10.3 ± 0.87 |
| ATATAATAAAATGACACACGCATATATATATATATA [CACACA_site2789] | 10.1 ± 0.26 |
| TTATATTTATTTATTTGTACATATTTTTTTTTATAT [XGTACX_site1669] | 11.2 ± 0.67 |
| TTTCTTTTTAAATATATACACACCGTGGGTACATAT [CACACA_site9102] | 11.4 ± 1 |
| ATTAATATTCTATATGCATGTGAACCATGGTATATA [TGCATGCA_site430] | 10.1 ± 0.15 |
| TCATATCTTTTGAGCACACATATATATATATAAAGG [CACACA_site3338] | 10.3 ± 0.27 |
| ATAAAATATTAATTTTAAATTAATCAATATATATAA [GTGCAC_negctrl_site474] | 9.63 ± 0.071 |
| TATGTGTTTATTTGGTGTACATACTAATAAATATAC [XGTACX_site1682] | 11.4 ± 0.82 |
| CCTAAATTATATTATGCACACTTAAAAATATATTTA [CACACA_site5861] | 10.1 ± 0.25 |
| AGGCTCAAATCTAGGTGTACCATTATCGTTGTATCT [XGTACX_site4730] | 11.1 ± 0.69 |
| ATTTTTTCTTATAATGCATGTAGAAAACCGTACAGC [TGCATGCA_site57] | 11 ± 0.71 |
| ATATCACATATATATATATATATATATATATATATA [XGTACX_negctrl_site463] | 9.83 ± 0.4 |
| AAAATATAAATTCATGTGCACATATATATTTTGTTA [GTGCAC_site9782] | 10.23 ± 0.078 |
| AGGAAAAAATCGAGTAGTACACATTTAGAAATATAA [XGTACX_site8019] | 11.5 ± 0.9 |
| TATATACATATATACACACACATATATTATATATAT [CACACA_site275] | 9.955 ± 0.035 |
| GTATGTATATTTATCTGTACATATTTATGTATTCTT [XGTACX_site2112] | 11.2 ± 0.64 |
| AACAAGGCCCGGTACTGTACATTTTTTCATAACATT [XGTACX_site6134] | 11.2 ± 0.47 |
| GAAAATAAAAAATATGAACACACATATATAACAAAA [CACACA_site7975] | 9.97 ± 0.12 |
| TCCTAATATATGTATGCACACACAATATATACATAT [CACACA_site9111] | 10.2 ± 0.19 |
